Our source for the amyloid nucleation score values is the supplement of paper PMC12067230.

This is a noisy data set.
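Further: [psi-pin-] Saccharomyces cerevisiae expressing SupN fusions, induced by 100 µM Cu2SO4, selected 7 d at 30 °C without adenine and uracil, scored by deep sequencing of output versus input.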

One series in a line: amyloid nucleation score relative to library mode (yeast Sup35 reporter selection) (log enrichment difference); higher = more amyloid nucleation; sequences are the first 22 residues of the Bri2 peptide extended by up to 12 random residues. Conditions: random library (experiment): 1;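 active = nucleation score significantly above 0 at FDR 0.05; inactive = not significantly above 0 or absent from output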.
In the case of EASNCFAIRHFENKFAVETLICMAKCFHLQFELF, the amyloid nucleation score result was “inactive”.
Sequence EASNCFAIRHFENKFAVETLICMALESMVTVYRR registered an amyloid nucleation score of 6.86.
On the same count and under the same terms, with EASNCFAIRHFENKFAVETLICMALHSPIYWLGA the entry was “inactive”.
In the case of EASNCFAIRHFENKFAVETLICMALNSRLRVHRR, the amyloid nucleation score result was “inactive”.
With EASNCFAIRHFENKFAVETLICMALVNSSGPLRV, the amyloid nucleation score result was “inactive”.
On the same count and under the same terms, with EASNCFAIRHFENKFAVETLICMARLHQAPSDWS the entry was “inactive”; with EASNCFAIRHFENKFAVETLICMASQSECTFRWA, “inactive”; with EASNCFAIRHFENKFAVETLICMAVSRLWVSRAR, “inactive”.
Turning to EASNCFAIRHFENKFAVETLICMAYCRNGSVIKW, the amyloid nucleation score result is “inactive”.
Same read-out and setting: to EASNCFAIRHFENKFAVETLICMCASCYLSLHSG belongs 4.4; to EASNCFAIRHFENKFAVETLICMCD, “inactive”; to EASNCFAIRHFENKFAVETLICMCHVVV, “inactive”.
As for EASNCFAIRHFENKFAVETLICMCKLHREEDFVR, the amyloid nucleation score was found to be 5.22.
As to EASNCFAIRHFENKFAVETLICMCLRSMPQWGAG, the amyloid nucleation score entry is “inactive”.
For the sequence EASNCFAIRHFENKFAVETLICMCMDFIEVSRMF, the amyloid nucleation score entry was “inactive”.
On the same count and under the same terms, to EASNCFAIRHFENKFAVETLICMCNESCM belongs 6.05.
Same read-out and setting: with EASNCFAIRHFENKFAVETLICMCPSAQMCRPCD the figure was 7.69.

Staying with this series, now noted: random library (experiment): 2.
For EASNCFAIRHFENKFAVETLICMAKQAFSYVWGV, the amyloid nucleation score entry was “inactive”.
The same measure, in the same setting: to EASNCFAIRHFENKFAVETLICMAVPVCPVCLGR belongs 4.64; to EASNCFAIRHFENKFAVETLICMC, 6.63; to EASNCFAIRHFENKFAVETLICMCCATDTILLGL, 7.31.
With EASNCFAIRHFENKFAVETLICMCGCNYMCMLW, the amyloid nucleation score entry is “inactive”.
Regarding EASNCFAIRHFENKFAVETLICMCHFDVTCAEVC, the amyloid nucleation score result was “inactive”.
Still for that read-out and setting: with EASNCFAIRHFENKFAVETLICMCLLTASVLSQG the entry was “inactive”; with EASNCFAIRHFENKFAVETLICMCLVIWPVRDDV, -0.489.
The same measure, in the same setting: with EASNCFAIRHFENKFAVETLICMCMVFPYVHPHR the figure was 2.22.
On to EASNCFAIRHFENKFAVETLICMCNENLLFESW, for which the amyloid nucleation score worked out at 4.01.
Consider EASNCFAIRHFENKFAVETLICMCPWWCYGRFNS, for which the amyloid nucleation score turned out to be 7.21.

The series is the same for the next values; noted with them: random library (experiment): 3.
In the case of EASNCFAIRHFENKFAVETLICMASSGWTGRVLA, the amyloid nucleation score entry was “inactive”.
Same read-out and setting: with EASNCFAIRHFENKFAVETLICMAVKRSSDRVTK the entry was “inactive”; with EASNCFAIRHFENKFAVETLICMAWGVQGTQLRG, “inactive”; with EASNCFAIRHFENKFAVETLICMCACRCSMILIW, “inactive”.
Turning to EASNCFAIRHFENKFAVETLICMCDFWWWYLTLR, the amyloid nucleation score worked out at 0.372.
Still for that read-out and setting: to EASNCFAIRHFENKFAVETLICMCFFDTEYAVR belongs “inactive”; to EASNCFAIRHFENKFAVETLICMCGSW, 7.14; to EASNCFAIRHFENKFAVETLICMCHPQENVSQDH, 8.69.
With EASNCFAIRHFENKFAVETLICMCKGRLPLSDSV, the amyloid nucleation score was found to be 5.15.
Same read-out and setting: to EASNCFAIRHFENKFAVETLICMCKGVEGTNRLT belongs 4.96.
Same read-out and setting: to EASNCFAIRHFENKFAVETLICMCLVPSCVMVYR belongs “inactive”; to EASNCFAIRHFENKFAVETLICMCMRRPILASFL, “inactive”; to EASNCFAIRHFENKFAVETLICMCMSSFRTYWTS, 4.13.
